Reference: ChEMBL document CHEMBL3232797, “Targeting Staphylococcus aureus quorum sensing with nonpeptidic small molecule inhibitors” (J Med Chem, 2014)
Active and inactive are the calls of the source. The calls are words filed in the database; no cut-off is given here.

Tested on: Staphylococcus aureus
Assay: Inhibition of alpha-hemolysin production in Staphylococcus aureus USA300 at 100 uM after 6 hrs by Western blot analysis

CCCCCCC/C(O)=C1/C(=O)N[C@@H](CCO)C1=O
inhibition: Active
